# From PMC7819943, “Rice protein-binding microarrays: a tool to detect cis-acting elements near promoter regions in rice”
# This is one part of the list.
# Target: T1, OsWOX13 (Oryza sativa, UniProt Q5QMM3 1-267)
# T1 sequence: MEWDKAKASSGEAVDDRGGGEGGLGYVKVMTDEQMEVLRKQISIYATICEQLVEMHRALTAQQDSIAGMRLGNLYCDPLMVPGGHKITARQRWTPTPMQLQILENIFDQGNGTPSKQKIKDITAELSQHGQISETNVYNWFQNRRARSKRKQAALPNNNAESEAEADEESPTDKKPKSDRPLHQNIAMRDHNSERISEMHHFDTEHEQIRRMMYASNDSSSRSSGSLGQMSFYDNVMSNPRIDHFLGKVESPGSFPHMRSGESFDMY
# Assay: protein-binding microarray (RPBM); PBS, 2% BSA, 51.3 ng/ul salmon testes DNA, 50 uM zinc acetate, 200 nM TF, 25 C, 1 h; high values mean tight binding
# Conditions: protein: recombinant; tags: N-terminal polyhistidine and DsRed monomer fusion (pET32a); label: CyDye5-dUTP incorporated in the synthesized complementary strand; 3' TTTTT single-stranded linker to array surface; dsDNA, one strand shown
# In short: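 Transcription factors were each fused at the N-terminus to a polyhistidine tag plus DsRed and expressed in E. coli BL21-CodonPlus before Ni–NTA purification. Binding to a double-stranded custom Agilent array was carried out with 200 nM protein at 25 °C for 1 h in PBS, 2% BSA, salmon testes DNA and 50 µM zinc acetate. The binding signal is per-feature fluorescence intensity, in arbitrary units, on an Axon 4000B scanner.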
row,Sequence,binding signal
1,AATTTATATTATAATTGACATTAGTGGAATACGAGGGGATCGGAGTCACCTAGTGCAG,23000 fluorescence intensity (a.u.)
2,TTTATATCATTCTAATTGATTCTGATAGTGCAGCGCAAACCGGAGTCACCTAGTGCAG,18800 fluorescence intensity (a.u.)
3,AAGACCATAACACAATTTAAATTGTTCGTTTATAACAATACGGAGTCACCTAGTGCAG,9700 fluorescence intensity (a.u.)
4,GTCTAACTGCCAACATCTTCATATGGCCCATCAATGCTTTCGGAGTCACCTAGTGCAG,3600 fluorescence intensity (a.u.)
5,GACATAAACGACCCACTGACATGTGGGCCCCACGGAGCCGCGGAGTCACCTAGTGCAG,7270 fluorescence intensity (a.u.)
6,GTGAGACAACAAATTAAGCAAAGCAGCGTCGATCGTCAGTCGGAGTCACCTAGTGCAG,3510 fluorescence intensity (a.u.)
7,GGCTAATAACATCATGTGACTAGTTTGTGGACTGTTTCACCGGAGTCACCTAGTGCAG,3590 fluorescence intensity (a.u.)
8,CCTTCCTGATTTCAATCAGCCGTTTACAGTAGAAACAGATCGGAGTCACCTAGTGCAG,41400 fluorescence intensity (a.u.)
9,TAAACATAATATAGATTGTGTGTCTAATTTTAACATTTGGCGGAGTCACCTAGTGCAG,10300 fluorescence intensity (a.u.)
10,GTCTTTGACAACTATTGATGCATAACCCATGTTAACACCCCGGAGTCACCTAGTGCAG,4000 fluorescence intensity (a.u.)
11,TGTTAATGATTTAGATTCATTAACATTAATATGAATGTGGCGGAGTCACCTAGTGCAG,33700 fluorescence intensity (a.u.)
12,TGAAAACTTTCAACTTAGATTGGAAAACTTTTAACTCGAGCGGAGTCACCTAGTGCAG,8230 fluorescence intensity (a.u.)
13,TGAACTAATTACCACCCATATTGAACACTATGTTACCCTACGGAGTCACCTAGTGCAG,20400 fluorescence intensity (a.u.)
14,TATAATTTAGATAATAAACTAGAAGCCAGATTCTTACAAGCGGAGTCACCTAGTGCAG,11700 fluorescence intensity (a.u.)
15,AATTAATTTATTCATTTGTATTATTGAATATAATAAAACCCGGAGTCACCTAGTGCAG,38000 fluorescence intensity (a.u.)
16,ATAAATTAGCACCCACCTCTGCCTTCCTACCTTCCCCTCCCGGAGTCACCTAGTGCAG,24900 fluorescence intensity (a.u.)
17,CTCTACATCTAATTAGATATGTACAGTATTTTAAAATTGACGGAGTCACCTAGTGCAG,12700 fluorescence intensity (a.u.)
18,CGGCCTATAATCAATCAATCGTTTGTTTGTCACATCCAACCGGAGTCACCTAGTGCAG,19000 fluorescence intensity (a.u.)
19,TCCCTGAAATTTCTGAATTTTGCCAATTTTGATGGGGCCTCGGAGTCACCTAGTGCAG,4580 fluorescence intensity (a.u.)
20,TTTGGCTTGATTGTATACCTTATGTGAACTACTTTGGTACCGGAGTCACCTAGTGCAG,13000 fluorescence intensity (a.u.)
21,TTAACTCTTGATTGATGTAAGCTGCAGATCACTTGGATTTCGGAGTCACCTAGTGCAG,45800 fluorescence intensity (a.u.)

row,Sequence,binding signal
1,TTCAAACCATGATTGGCCTCCATGAACAAGTAAGAAAAGGCGGAGTCACCTAGTGCAG,13900 fluorescence intensity (a.u.)
2,CTAGATGGATTATTCCCACTCAAGAAATCCATCTGACCGTCGGAGTCACCTAGTGCAG,13600 fluorescence intensity (a.u.)
3,ACAAATTTACATACTAATTGTAATTAGTATGTAATTTTCGCGGAGTCACCTAGTGCAG,31600 fluorescence intensity (a.u.)
4,TTGATGACACTATTTTCACATAACAGCATTGCATGATTGCCGGAGTCACCTAGTGCAG,3870 fluorescence intensity (a.u.)
5,TTAATTTAATGAAACTAATTTAGTAATATAAATATTATTACGGAGTCACCTAGTGCAG,25000 fluorescence intensity (a.u.)
6,AACCAGGCTTACAAATTTGATTGTTTATTGAAGATCGACCCGGAGTCACCTAGTGCAG,13600 fluorescence intensity (a.u.)
7,ATTCAAATATGATTTTATTGGTTAACAACGAGATCTTATGCGGAGTCACCTAGTGCAG,5790 fluorescence intensity (a.u.)
8,GCACCTAATTTTCTTCGTCCTCTCCCTCTCTTCTTCTCTTCGGAGTCACCTAGTGCAG,3190 fluorescence intensity (a.u.)
9,CCTAATTAATCCGTCATTAGCAAATGTTTACTGTCACCACCGGAGTCACCTAGTGCAG,36200 fluorescence intensity (a.u.)
10,GCAATAATCTGATTAATTAACGCGTTGTAGACACGCGGATCGGAGTCACCTAGTGCAG,21100 fluorescence intensity (a.u.)
11,CCCCACTAATCACTAATGATCCAAAGGAATAAACCCTTCCCGGAGTCACCTAGTGCAG,8860 fluorescence intensity (a.u.)
12,CTGTCTCATTTCAATTCACACTCAATCAATTCTCTTGCATCGGAGTCACCTAGTGCAG,6190 fluorescence intensity (a.u.)
13,AGTGATGGCATTGACTGACTTGGGGAAGGAAACAATCGAGCGGAGTCACCTAGTGCAG,16000 fluorescence intensity (a.u.)
14,AATACTCAATTAATCATGAGCTAATAGCTCACATCGTTTCCGGAGTCACCTAGTGCAG,9430 fluorescence intensity (a.u.)
15,GACTAATTGCTCCATGATTTAATAATGTGGTGTTACAGTACGGAGTCACCTAGTGCAG,47400 fluorescence intensity (a.u.)
16,GCGATTTGGAGCGTCTGATTGGCCAAAGCATTGTTCATCACGGAGTCACCTAGTGCAG,6470 fluorescence intensity (a.u.)
17,ATAGGATTGAATAAGATTTCTCCTTTTGTTGTTCGAACTTCGGAGTCACCTAGTGCAG,15900 fluorescence intensity (a.u.)
18,TTCTAGTCTCTTTCTAATCATGCACATTTAATAGTAAAGCCGGAGTCACCTAGTGCAG,5420 fluorescence intensity (a.u.)
19,AGATGATTTCTGCAAACTCAACAGCCAATTGCAATGGGAACGGAGTCACCTAGTGCAG,9270 fluorescence intensity (a.u.)
20,AGATTAATTAATAAAGCACATAGAAAGCCTTGTTAATTATCGGAGTCACCTAGTGCAG,6820 fluorescence intensity (a.u.)
21,TTGTATTAGATGGACATTATGATACATATTATGTCCCTTTCGGAGTCACCTAGTGCAG,3300 fluorescence intensity (a.u.)
